Laboratory results published in the supplement of paper PMC4466236.
In all, about 33,000 sequences were measured (“E-score (dimensionless, -0.5 to 0.5)”: median about -0.058, highest 2% from about 0.35 on). This is one part of the list.

Test system: MvaT
Experiment: PBM 8-mer E-score (mean of HK and ME arrays) (E-score (dimensionless, -0.5 to 0.5)); higher = stronger relative binding preference; most listed sequences are background and not binding sites
Outline: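 Full-length P. aeruginosa MvaT carrying an N-terminal glutathione S-transferase tag was tested by protein binding microarray following a previously described protocol. Two universal double-stranded 60-mer arrays, ME and HK, were used, each with a constant 25-mer primer region and a variable 35-mer region covering all 8-mers. The rank-based E-score is the mean of the two arrays, parsed with a custom script. Its range runs from -0.5 to 0.5 for each 8-mer.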

Row | Sequence | PBM 8-mer E-score
1 | ATTCCCGG | 1.53e-05
2 | GCTCAAGC | -0.303
3 | TTAAGAAA | 0.242
4 | AAAAATAA | 0.403
5 | CACGTGGG | -0.207
6 | AGAAAATA | 0.259
7 | CCCGGTCC | -0.334
8 | AAGCTTGC | -0.146
9 | GGACGCTA | -0.318
10 | ACCGCGAC | -0.178
11 | CCGTAGAA | 0.0349
12 | GGCCCATA | 0.0568
13 | CAAGCGTA | -0.209
14 | CACCTCGC | -0.076
15 | AGTTATTG | 0.312
16 | ACGGGAGT | -0.192
17 | AAGCCCTA | -0.189
18 | CTTAACAC | 0.122
19 | CCCTGCAA | -0.134
20 | GTATCAAA | 0.089
21 | CCTTGGCA | -0.23
22 | CACATTCC | 0.0346
23 | CCCATAGG | -0.216
24 | AAGGGGCC | -0.346
25 | CTGGCCAA | -0.176

Row | Sequence | PBM 8-mer E-score
26 | CGGCTATC | -0.193
27 | GTTATCGA | 0.0887
28 | ACTTAAAA | 0.226
29 | ATGCGCGC | -0.021
30 | ACGGTTGC | -0.0117
31 | ACATAGCC | -0.128
32 | AGAGAACA | 0.0712
33 | CCCTATTC | -0.0171
34 | AGGAGCCG | -0.264
35 | ATTCCCGC | 0.00135
36 | CCCGCTGA | -0.161
37 | AGGCAGAG | -0.105
38 | AACTATTC | 0.255
39 | ACTCCACC | -0.0666
40 | GGTGGTCA | -0.0917
41 | TGTGGAAA | 0.0507
42 | ATCTTTTC | 0.149
43 | CCAACGCG | -0.14
44 | AACGCCAT | -0.0432
45 | CACGAAGG | -0.186
46 | CTGCATGA | -0.201
47 | AACGACGT | 0.0245
48 | ATGACCAT | -0.0431
49 | CATCACAG | -0.147
50 | CCCGGCGA | -0.269

Row | Sequence | PBM 8-mer E-score
51 | CCCCTAAC | -0.0399
52 | GAGCAAAC | -0.0867
53 | GAAGCGGA | -0.142
54 | AGGACTAT | 0.0169
55 | GCAAACGA | -0.15
56 | ACGCGAGA | -0.06
57 | CTATCTTC | -0.038
58 | GGAGTACC | -0.231
59 | ATGAAATC | 0.0602
60 | ACACCCGA | -0.0287
61 | GCTGAACC | -0.169
62 | AAGATTCC | -0.0739
63 | ACCACTGA | -0.0828
64 | ATATAGTC | 0.361
65 | CCCCCTAC | -0.36
66 | CCAATGAA | -0.1
67 | CGTGTATC | 0.00917
68 | GGAACCGA | -0.165
69 | CCCTCGTA | -0.188
70 | CGCCCGGC | -0.262
71 | AGGGCGTG | -0.185
72 | AGTATATG | 0.351
73 | CATTGACA | 0.15
74 | ACTCGTTG | -0.0973
75 | TGTTCGAA | 0.156

Row | Sequence | PBM 8-mer E-score
76 | AACATGAA | 0.286
77 | GAGGTTGC | -0.182
78 | AGAACTCC | -0.204
79 | GTGGGGTA | -0.145
80 | CCCTTCGA | -0.274
81 | GAAATCGA | 0.0851
82 | TCCCGGAA | -0.126
83 | AAGACAGC | 0.081
84 | ATTTTAAC | 0.307
85 | ATTCACCC | 0.00296
86 | AGAATCCT | -0.113
87 | TAGTGTCA | 0.132
88 | AGCTTCAA | -0.0478
89 | CGCTCTCA | -0.255
90 | AATAGGAT | 0.0576
91 | TACGTTGA | 0.0324
92 | CTCGTTTC | -0.0709
93 | CGAGGCAC | -0.239
94 | CCGTAATA | 0.287
95 | CGAGAGAA | 0.00368
96 | GGAATTAC | 0.149
97 | ATAGGTTC | -0.0175
98 | GTTCGAAA | 0.0482
99 | AAGTTTTA | 0.318
100 | CGTTATCA | 0.111

Row | Sequence | PBM 8-mer E-score
101 | CTTATGAA | 0.153
102 | TACAGTAA | 0.328
103 | AACCCCCT | -0.319
104 | CATGGAAG | -0.173
105 | ATGACGGG | -0.106
106 | ATTACATG | 0.307
107 | ACTCTGTA | -0.00202
108 | AAGCAATC | -0.00724
109 | AAAGTAGC | -0.00641
110 | AACGACCC | -0.206
111 | GCACTATA | 0.279
112 | ATGTCTGC | -0.0286
113 | TCGCGTCA | -0.0789
114 | CCCGGAGC | -0.185
115 | GTCCATTA | 0.0833
116 | ATTCTTCC | 0.128
117 | GCACACCA | 0.00852
118 | CATCTCCG | -0.186
119 | CCCACTCC | -0.283
120 | AAGCCACA | -0.0582
121 | CCGCCATA | -0.00214
122 | GATATACA | 0.205
123 | AGAGTCCG | -0.298
124 | ACCTTGTC | -0.198
125 | AGAGTTCC | -0.165

Row | Sequence | PBM 8-mer E-score
126 | ACTCCGTG | -0.114
127 | CGAGGTCC | -0.148
128 | AAACCTCT | -0.0484
129 | ATTCCATG | 0.194
130 | GACCATCC | -0.148
131 | AAACTGGG | 0.00238
132 | CTATGCCC | -0.194
133 | ATTACGCA | 0.263
134 | AGGGGCCG | -0.268
135 | ATGCATTG | 0.138
136 | CCGATAAA | 0.21
137 | CACAGACA | -0.0385
138 | CTCCTAAG | -0.0572
139 | GGGTGATA | -0.0167
140 | ACTACACA | 0.107
141 | AACAGGTC | -0.14
142 | ATGAAAAC | 0.212
143 | TGACAGAA | -0.151
144 | CGCGATAA | 0.143
145 | CAGATGGA | -0.0311
146 | CTAAATCC | 0.0361
147 | GCTTGTAA | 0.0867
148 | ATCCATGG | -0.0323
149 | AGTTCTCC | -0.111
150 | AACGCTAA | 0.197

Row | Sequence | PBM 8-mer E-score
151 | CTTTGGTC | -0.0265
152 | CGGGATTC | -0.163
153 | CATTGAGG | -0.142
154 | AGCACTAA | -0.00924
155 | AGGTAGGC | -0.179
156 | CACGTCGA | -0.042
157 | CCTTGGTA | -0.225
158 | GGCTACAC | -0.187
159 | AATTTTCG | 0.238
160 | AGGACAAG | -0.075
161 | ACAAGTAC | 0.123
162 | CACAGCAC | -0.0801
163 | AAAGACGA | 0.0809
164 | GGATCGCC | -0.321
165 | GACAGGTA | -0.0934
166 | AGGGAGAG | -0.161
167 | GGATCAAA | -0.0216
168 | AAGACCAT | -0.0607
169 | CCGGGACC | -0.311
170 | ATGTTTCA | 0.316
171 | GAAGGGAC | -0.244
172 | AAGCTGAT | 0.0252
